Results are given in words; binding and its absence hold for the method and conditions named. For part of these data: In cells and extracts the contact can be indirect. Some results given as binding are weak or reduced against the parent protein; the word gives no strength. For part of these data: Where a sequence is shown, tags or fusion partners need not be part of it.
T1: FHIP1B tagged at the carboxy terminus with BioID2 and 3xFLAG (human), Q8N612
T1 chain: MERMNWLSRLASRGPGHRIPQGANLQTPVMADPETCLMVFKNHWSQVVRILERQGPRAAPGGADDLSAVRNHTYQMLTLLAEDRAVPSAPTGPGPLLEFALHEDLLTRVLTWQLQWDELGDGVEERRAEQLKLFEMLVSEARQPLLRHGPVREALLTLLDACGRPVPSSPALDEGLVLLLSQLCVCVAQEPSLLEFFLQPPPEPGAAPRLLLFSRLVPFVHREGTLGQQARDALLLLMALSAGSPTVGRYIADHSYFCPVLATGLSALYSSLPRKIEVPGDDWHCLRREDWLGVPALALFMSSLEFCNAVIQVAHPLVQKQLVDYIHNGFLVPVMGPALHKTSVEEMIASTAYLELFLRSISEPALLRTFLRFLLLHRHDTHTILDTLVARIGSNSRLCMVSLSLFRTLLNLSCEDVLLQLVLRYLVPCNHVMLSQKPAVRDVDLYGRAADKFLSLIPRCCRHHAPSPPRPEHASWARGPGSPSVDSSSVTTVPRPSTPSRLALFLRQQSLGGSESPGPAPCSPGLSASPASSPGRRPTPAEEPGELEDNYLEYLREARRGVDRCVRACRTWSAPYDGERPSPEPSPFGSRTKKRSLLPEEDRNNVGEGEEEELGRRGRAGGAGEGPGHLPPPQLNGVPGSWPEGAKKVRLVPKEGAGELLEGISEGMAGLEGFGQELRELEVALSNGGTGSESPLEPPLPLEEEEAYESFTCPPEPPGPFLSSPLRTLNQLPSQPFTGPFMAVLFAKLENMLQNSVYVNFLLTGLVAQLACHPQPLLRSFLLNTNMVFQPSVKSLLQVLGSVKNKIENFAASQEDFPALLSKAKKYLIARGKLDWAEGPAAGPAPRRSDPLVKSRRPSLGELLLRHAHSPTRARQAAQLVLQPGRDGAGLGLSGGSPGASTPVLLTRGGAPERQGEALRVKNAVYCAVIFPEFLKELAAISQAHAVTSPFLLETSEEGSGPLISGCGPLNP

Sequences of proteins named here, by UniProt entry; tags and fusion partners are left off.
UniProt Q86V87: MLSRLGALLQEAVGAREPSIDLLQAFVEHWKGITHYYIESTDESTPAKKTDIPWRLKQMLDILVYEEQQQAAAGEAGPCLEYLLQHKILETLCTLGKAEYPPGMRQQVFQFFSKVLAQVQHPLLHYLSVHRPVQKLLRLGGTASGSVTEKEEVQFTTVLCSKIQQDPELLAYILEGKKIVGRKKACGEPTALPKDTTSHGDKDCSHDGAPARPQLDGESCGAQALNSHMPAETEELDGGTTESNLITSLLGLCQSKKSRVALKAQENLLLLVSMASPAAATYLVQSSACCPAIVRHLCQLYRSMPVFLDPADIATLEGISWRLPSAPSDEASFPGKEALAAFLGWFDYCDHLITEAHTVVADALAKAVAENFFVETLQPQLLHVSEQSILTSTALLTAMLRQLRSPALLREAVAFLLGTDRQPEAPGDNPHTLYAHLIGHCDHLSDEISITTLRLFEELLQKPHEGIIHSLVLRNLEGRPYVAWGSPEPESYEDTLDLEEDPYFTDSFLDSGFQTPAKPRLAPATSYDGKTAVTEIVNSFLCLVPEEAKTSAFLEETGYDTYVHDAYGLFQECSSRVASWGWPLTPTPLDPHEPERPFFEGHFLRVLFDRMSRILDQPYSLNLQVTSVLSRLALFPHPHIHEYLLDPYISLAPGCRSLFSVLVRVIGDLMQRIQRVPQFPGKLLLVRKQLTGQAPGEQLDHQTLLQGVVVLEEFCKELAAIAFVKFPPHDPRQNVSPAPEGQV

T2: FHIP1B tagged at the carboxy terminus with BioID2 and 3xFLAG (human) (UniProt Q8N612)
T2 sequence: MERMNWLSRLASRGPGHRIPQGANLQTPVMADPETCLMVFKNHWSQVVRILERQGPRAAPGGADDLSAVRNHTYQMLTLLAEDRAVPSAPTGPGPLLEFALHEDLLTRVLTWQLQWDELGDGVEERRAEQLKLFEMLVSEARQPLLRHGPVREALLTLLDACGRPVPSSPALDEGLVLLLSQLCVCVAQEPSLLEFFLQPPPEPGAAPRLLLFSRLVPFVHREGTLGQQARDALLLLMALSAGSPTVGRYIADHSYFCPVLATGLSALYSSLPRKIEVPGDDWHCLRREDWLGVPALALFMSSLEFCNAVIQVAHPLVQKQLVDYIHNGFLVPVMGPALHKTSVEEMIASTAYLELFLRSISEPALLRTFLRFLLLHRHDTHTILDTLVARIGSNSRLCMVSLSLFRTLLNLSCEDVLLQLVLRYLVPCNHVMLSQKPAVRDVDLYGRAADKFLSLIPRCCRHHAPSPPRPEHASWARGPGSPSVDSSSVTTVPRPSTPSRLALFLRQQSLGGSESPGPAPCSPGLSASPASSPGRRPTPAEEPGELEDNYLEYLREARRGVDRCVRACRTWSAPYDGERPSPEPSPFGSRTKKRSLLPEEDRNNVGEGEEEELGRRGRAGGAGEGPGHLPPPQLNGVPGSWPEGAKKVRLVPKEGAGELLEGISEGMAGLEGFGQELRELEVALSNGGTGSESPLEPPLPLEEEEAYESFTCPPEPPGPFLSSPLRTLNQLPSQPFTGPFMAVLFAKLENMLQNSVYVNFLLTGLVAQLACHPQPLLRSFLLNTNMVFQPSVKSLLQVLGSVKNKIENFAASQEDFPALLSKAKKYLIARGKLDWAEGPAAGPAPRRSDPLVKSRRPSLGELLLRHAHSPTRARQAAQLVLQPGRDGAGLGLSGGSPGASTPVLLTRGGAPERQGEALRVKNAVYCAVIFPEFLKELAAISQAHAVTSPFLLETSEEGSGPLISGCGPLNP

T3: purified FHIP1B-HaloTag (FHIP1B-HaloTag-TEV-ZZ) (human) (UniProt Q8N612)
T3 sequence (chain, Alexa-660 on the HaloTag (motility assays and copurification with FTS)): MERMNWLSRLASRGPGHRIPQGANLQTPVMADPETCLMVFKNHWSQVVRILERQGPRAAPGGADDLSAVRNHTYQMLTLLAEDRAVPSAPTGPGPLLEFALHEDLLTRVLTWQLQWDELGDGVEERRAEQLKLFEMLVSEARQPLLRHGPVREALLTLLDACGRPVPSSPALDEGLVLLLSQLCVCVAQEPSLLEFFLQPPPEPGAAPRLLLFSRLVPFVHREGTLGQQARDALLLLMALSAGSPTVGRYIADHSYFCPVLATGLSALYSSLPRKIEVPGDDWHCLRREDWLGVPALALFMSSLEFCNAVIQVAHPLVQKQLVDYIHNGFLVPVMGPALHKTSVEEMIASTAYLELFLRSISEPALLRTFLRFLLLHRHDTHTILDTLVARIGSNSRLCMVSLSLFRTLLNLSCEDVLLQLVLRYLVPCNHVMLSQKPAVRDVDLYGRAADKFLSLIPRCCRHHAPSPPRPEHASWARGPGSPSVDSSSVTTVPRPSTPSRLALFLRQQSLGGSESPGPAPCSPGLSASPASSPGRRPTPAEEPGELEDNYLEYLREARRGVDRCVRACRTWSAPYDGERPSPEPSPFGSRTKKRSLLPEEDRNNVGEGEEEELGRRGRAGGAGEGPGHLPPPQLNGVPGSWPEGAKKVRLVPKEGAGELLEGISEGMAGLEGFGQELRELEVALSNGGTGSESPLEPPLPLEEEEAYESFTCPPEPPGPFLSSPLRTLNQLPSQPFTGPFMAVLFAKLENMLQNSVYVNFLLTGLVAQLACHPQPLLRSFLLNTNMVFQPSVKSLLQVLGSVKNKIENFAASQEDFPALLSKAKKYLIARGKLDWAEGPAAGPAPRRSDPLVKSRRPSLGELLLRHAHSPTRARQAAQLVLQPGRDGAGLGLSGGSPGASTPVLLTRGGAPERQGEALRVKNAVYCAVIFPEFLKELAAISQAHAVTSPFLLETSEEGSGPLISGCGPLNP


Assays:
[1] = target: FHIP1A tagged at the carboxy terminus with BioID2 and 3xFLAG (human) (UniProt Q05DH4); experiment: co-IP; FLAG affinity resin IP of FHIP-BioID2-3xFLAG baits from stable 293T cell lines; immunoblots with anti-Hook1, anti-Hook2, anti-Hook3; BioID2-3xFLAG as control
[2] = target: FHIP2A tagged at the carboxy terminus with BioID2 and 3xFLAG (human) (UniProt Q5W0V3); experiment: as above
[3] = target: FHIP2B tagged at the carboxy terminus with BioID2 and 3xFLAG (human) (UniProt Q86V87); experiment: as above
[4] = target: T1, FHIP1B tagged at the carboxy terminus …; experiment: as above; settings: remark: other sources report otherwise
[5] = target: T2, FHIP1B tagged at the carboxy terminus with BioID2 and 3xFLAG (human); experiment: as above
[6] = target: T3, purified FHIP1B-HaloTag (FHIP1B-HaloTag-TEV-ZZ) (human); experiment: SEC; FHIP1B and FTS co-expressed in Sf9; IgG beads, TEV cleavage, Superdex 200 in 25 mM HEPES pH 7.4, 150 mM KCl, 1 mM DTT; coelution in the peak fractions

| Binder | binding [1] | binding [2] | binding [3] | binding [4] | binding [5] | binding [6] |
| --- | --- | --- | --- | --- | --- | --- |
| Hook2, endogenous in 293T cells (protein, UniProt Q96ED9 1-719) MSVDKAELCGSLLTWLQTFHVPSPCASPQDLSSGLAVAYVLNQIDPSWFNEAWLQGISEDPGPNWKLKVSNLKMVLRSLVEYSQDVLAHPVSEEHLPDVSLIGEFSDPAELGKLLQLVLGCAISCEKKQDHIQRIMTLEESVQHVVMEAIQELMTKDTPDSLSPETYGNFDSQSRRYYFLSEEAEEGDELQQRCLDLERQLMLLSEEKQSLAQENAGLRERMGRPEGEGTPGLTAKKLLLLQSQLEQLQEENFRLESGREDERLRCAELEREVAELQHRNQALTSLAQEAQALKDEMDELRQSSERAGQLEATLTSCRRRLGELRELRRQVRQLEERNAGHAERTRQLEDELRRAGSLRAQLEAQRRQVQELQGQRQEEAMKAEKWLFECRNLEEKYESVTKEKERLLAERDSLREANEELRCAQLQPRGLTQADPSLDPTSTPVDNLAAEILPAELRETLLRLQLENKRLCRQEAADRERQEELQRHLEDANRARHGLETQHRLNQQQLSELRAQVEDLQKALQEQGGKTEDAISILLKRKLEEHLQKLHEADLELQRKREYIEELEPPTDSSTARRIEELQHNLQKKDADLRAMEERYRRYVDKARMVMQTMEPKQRPAAGAPPELHSLRTQLRERDVRIRHLEMDFEKSRSQREQEEKLLISAWYNMGMALQQRAGEERAPAHAQSFLAQQRLATNSRRGPLGRLASLNLRPTDKH | no binding | binds | binds | – | – | – |
| Hook2, endogenous in 293T cells, Q96ED9 1-719 (protein) MSVDKAELCGSLLTWLQTFHVPSPCASPQDLSSGLAVAYVLNQIDPSWFNEAWLQGISEDPGPNWKLKVSNLKMVLRSLVEYSQDVLAHPVSEEHLPDVSLIGEFSDPAELGKLLQLVLGCAISCEKKQDHIQRIMTLEESVQHVVMEAIQELMTKDTPDSLSPETYGNFDSQSRRYYFLSEEAEEGDELQQRCLDLERQLMLLSEEKQSLAQENAGLRERMGRPEGEGTPGLTAKKLLLLQSQLEQLQEENFRLESGREDERLRCAELEREVAELQHRNQALTSLAQEAQALKDEMDELRQSSERAGQLEATLTSCRRRLGELRELRRQVRQLEERNAGHAERTRQLEDELRRAGSLRAQLEAQRRQVQELQGQRQEEAMKAEKWLFECRNLEEKYESVTKEKERLLAERDSLREANEELRCAQLQPRGLTQADPSLDPTSTPVDNLAAEILPAELRETLLRLQLENKRLCRQEAADRERQEELQRHLEDANRARHGLETQHRLNQQQLSELRAQVEDLQKALQEQGGKTEDAISILLKRKLEEHLQKLHEADLELQRKREYIEELEPPTDSSTARRIEELQHNLQKKDADLRAMEERYRRYVDKARMVMQTMEPKQRPAAGAPPELHSLRTQLRERDVRIRHLEMDFEKSRSQREQEEKLLISAWYNMGMALQQRAGEERAPAHAQSFLAQQRLATNSRRGPLGRLASLNLRPTDKH | – | – | – | no binding | – | – |

The next lines start with the values.

| binding [1] | binding [2] | binding [3] | binding [4] | binding [5] | binding [6] | Binder |
| --- | --- | --- | --- | --- | --- | --- |
| binds | binds weakly | binds | – | binds | – | Hook3, endogenous in 293T cells (protein, UniProt Q86VS8 1-718) MFSVESLERAELCESLLTWIQTFNVDAPCQTVEDLTNGVVMAQVLQKIDPAYFDENWLNRIKTEVGDNWRLKISNLKKILKGILDYNHEILGQQINDFTLPDVNLIGEHSDAAELGRMLQLILGCAVNCEQKQEYIQAIMMMEESVQHVVMTAIQELMSKESPVSAGNDAYVDLDRQLKKTTEELNEALSAKEEIAQRCHELDMQVAALQEEKSSLLAENQVLMERLNQSDSIEDPNSPAGRRHLQLQTQLEQLQEETFRLEAAKDDYRIRCEELEKEISELRQQNDELTTLADEAQSLKDEIDVLRHSSDKVSKLEGQVESYKKKLEDLGDLRRQVKLLEEKNTMYMQNTVSLEEELRKANAARSQLETYKRQVVELQNRLSEESKKADKLDFEYKRLKEKVDSLQKEKDRLRTERDSLKETIEELRCVQAQEGQLTTQGLMPLGSQESSDSLAAEIVTPEIREKLIRLQHENKMLKLNQEGSDNEKIALLQSLLDDANLRKNELETENRLVNQRLLEVQSQVEELQKSLQDQGSKAEDSVLLKKKLEEHLEKLHEANNELQKKRAIIEDLEPRFNNSSLKIEELQEALRKKEEEMKQMEERYKKYLEKAKSVIRTLDPKQNQGAAPEIQALKNQLQERDRLFHSLEKEYEKTKSQREMEEKYIVSAWYNMGMTLHKKAAEDRLASTGSGQSFLARQRQATSSRRSYPGHVQPATAR |
| – | – | – | – | – | binds | purified 3XFLAG-SNAP-FTS (protein, UniProt Q9H8T0 1-292) MNPFWSMSTSSVRKRSEGEEKTLTGDVKTSPPRTAPKKQLPSIPKNALPITKPTSPAPAAQSTNGTHASYGPFYLEYSLLAEFTLVVKQKLPGVYVQPSYRSALMWFGVIFIRHGLYQDGVFKFTVYIPDNYPDGDCPRLVFDIPVFHPLVDPTSGELDVKRAFAKWRRNHNHIWQVLMYARRVFYKIDTASPLNPEAAVLYEKDIQLFKSKVVDSVKVCTARLFDQPKIEDPYAISFSPWNPSVHDEAREKMLTQKKPEEQHNKSVHVAGLSWVKPGSVQPFSKEEKTVAT |

— paper PMC8730729
